Laboratory results from patent publication US20030099944A1, “Combination therapy involving drugs which target cellular proteins and drugs which target pathogen-encoded proteins” (priority 1998, published 2003).

Tested on: HSV-1 DNA replication
Assay type: cell-based, herpes simplex virus type 1

O=C(O)CP(=O)(O)O [PAA, phosphonoacetic acid]
fold viral DNA replication during 20 hours after release from PAA block: about 5 fold
